The values that follow come from patent US20120260922A1, “TOPICAL USE OF HYDROXYTYROSOL AND DERIVATIVES FOR THE PREVENTION OF HIV INFECTION” (priority 2009, published 2012).

The test system of this test is R5-tropic virus (JR-Renilla). Description: microbe, parasite or virus in culture. Format: cell-based, HIV. From the text:
One of the most important mechanisms of HIV infection is that mediated by the introduction of the virus through cells presenting antigen DC-SIGN+, which is called trans-infection. This mechanism was studied with a system based on cells DC-SIGN+ (RAJI DC-SIGN) that mimetizes the natural infection conditions. The target of the infection are PBMC cells from healthy donors. The results obtained with Hydroxytyrosol are show in table 1 and FIG. 4.

Broadly, the EC50 is the midpoint of the concentration-response curve. A high value points to weaker potency.

Each structure is given as a SMILES string.

In turn, `OCCc1ccc(O)c(O)c1` [Hydroxytyrosol, 4-(2-hydroxyethyl)-1,2-benzenediol] displayed an EC50 (Human immunodeficiency virus 1, Raji) of 4.88 µM. Also, where the note is “compared with direct infection”, the “inhibition of trans-infection with R5-tropic virus” value was “more potency that in the assays with direct infection”.
